PubChem BioAssay (Tox21)
Where “and” joins values, the source holds several entries; their conditions need not be identical. Identical values can stand only once. The inconclusive results got no clear call from the source; some entries with a clear call stand among them for comparison. For some assays here: Potencies of inconclusive entries are doubtful fits and often do not repeat. Where a structure was tested more than once in an assay, its records may differ in their call. Calls of active or inactive are those of the source. Unless noted, calls follow the shape of the dose curve; as a rule, active = well fitted curve in the direction sought with a large enough effect in the repeat runs; inconclusive = weak or mixed curves; inactive = no such curve, though single readings can be large; an effect the other way counts as inactive or inconclusive.

How the values were obtained:
[1] = qHTS assay to identify aromatase inhibitors - cell viability counter screen (AID 743084); conditions: MCF-7 aro ERE viability, CellTiter-Fluor, 24 h; activity change, negative = cytotoxicity: at 70.3 µM (top of the series);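 also: cells stimulated with testosterone during compound exposure; nearly all actives have a fitted effect of over 55% in size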; also: potency is read from the fitted curve at half-maximal effect; as to activity change, negative = cytotoxicity: % is scaled to controls: 0 for no effect and ±100 for the full control effect
[2] = molecular target: Aryl hydrocarbon receptor (Homo sapiens) (UniProt P35869); assay: qHTS assay to identify small molecule that activate the aryl hydrocarbon receptor (AhR) signaling pathway (AID 743085); also: potency is read from the fitted curve at half-maximal effect; nearly all actives have a fitted effect of over 15% in size
Chain of UniProt P35869 (P35869 whole entry, looked up): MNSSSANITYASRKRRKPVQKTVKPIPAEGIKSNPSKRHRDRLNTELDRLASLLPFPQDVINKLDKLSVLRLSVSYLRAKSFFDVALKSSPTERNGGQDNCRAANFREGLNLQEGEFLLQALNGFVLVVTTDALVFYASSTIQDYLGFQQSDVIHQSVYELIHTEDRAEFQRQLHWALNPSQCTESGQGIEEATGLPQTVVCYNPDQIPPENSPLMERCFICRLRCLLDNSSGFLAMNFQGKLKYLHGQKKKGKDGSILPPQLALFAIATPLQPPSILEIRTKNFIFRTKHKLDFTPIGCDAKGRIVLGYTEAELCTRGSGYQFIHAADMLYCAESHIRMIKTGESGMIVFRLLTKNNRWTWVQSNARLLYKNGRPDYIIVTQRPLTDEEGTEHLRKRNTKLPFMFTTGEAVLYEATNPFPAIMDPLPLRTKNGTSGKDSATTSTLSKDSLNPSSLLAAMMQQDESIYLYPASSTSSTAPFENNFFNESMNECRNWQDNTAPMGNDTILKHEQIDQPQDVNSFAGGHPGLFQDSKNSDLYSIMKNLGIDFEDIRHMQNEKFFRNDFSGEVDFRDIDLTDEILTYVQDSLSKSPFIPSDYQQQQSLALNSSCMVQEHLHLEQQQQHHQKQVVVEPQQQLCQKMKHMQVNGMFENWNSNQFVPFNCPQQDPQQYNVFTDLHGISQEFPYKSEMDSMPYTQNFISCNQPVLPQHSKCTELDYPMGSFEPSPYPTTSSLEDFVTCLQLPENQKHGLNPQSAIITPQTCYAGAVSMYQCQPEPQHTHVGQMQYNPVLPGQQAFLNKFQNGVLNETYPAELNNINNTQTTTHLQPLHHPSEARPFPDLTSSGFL
How it was run: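 AhR agonist activity is inferred from enhanced light output of a DRE-controlled firefly luciferase reporter in HepG2 cells, measured with ONE-Glo following 24 h treatment at 37C.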

[3] = molecular target: Peroxisome proliferator-activated receptor gamma (Homo sapiens) (UniProt P37231); assay: qHTS assay to identify small molecule agonists of the peroxisome proliferator-activated receptor gamma (PPARg) signaling pathway (AID 743094; active = well fitted activation curve with a large enough effect in the signal ratio in the repeat runs, not every such curve was filed as active; inconclusive = weak or mixed curves, or effect the other way; inactive = no such curve, though single readings can be large or run the other way; the % refers to the signal ratio; also: potency is read from the fitted curve at half-maximal effect); conditions: HEK293H PPARg-UAS-bla, beta-lactamase FRET ratio, 17 h; activation: at 57 µM (top of the series) unless noted
Chain of UniProt P37231 (P37231 whole entry, looked up): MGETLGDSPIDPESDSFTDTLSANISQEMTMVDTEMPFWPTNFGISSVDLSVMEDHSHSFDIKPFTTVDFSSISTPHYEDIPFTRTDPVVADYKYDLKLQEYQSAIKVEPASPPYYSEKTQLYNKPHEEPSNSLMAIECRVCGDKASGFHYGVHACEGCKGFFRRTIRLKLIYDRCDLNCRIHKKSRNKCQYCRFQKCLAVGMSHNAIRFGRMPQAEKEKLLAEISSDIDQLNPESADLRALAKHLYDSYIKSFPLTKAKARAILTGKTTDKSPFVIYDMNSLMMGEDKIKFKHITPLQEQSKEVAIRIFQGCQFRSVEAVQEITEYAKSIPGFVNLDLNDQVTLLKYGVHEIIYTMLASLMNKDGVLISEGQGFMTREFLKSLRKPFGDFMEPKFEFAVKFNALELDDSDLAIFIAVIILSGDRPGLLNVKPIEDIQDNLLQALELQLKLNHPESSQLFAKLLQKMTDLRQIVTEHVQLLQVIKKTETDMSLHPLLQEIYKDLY
How it was run: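 Stably transfected HEK293H cells (GeneBLAzer PPARg UAS-bla) were incubated with test substances for 17 h at 37C after a 5 h pre-incubation; beta-lactamase activity was then detected by FRET substrate fluorescence.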

[4] = molecular target: Peroxisome proliferator-activated receptor gamma (Homo sapiens) (UniProt P37231); assay: qHTS assay to identify small molecule antagonists of the peroxisome proliferator-activated receptor gamma (PPARg) signaling pathway (AID 743191; calls by dose curve; also: nearly all actives have a fitted effect of over 30% in size; also: potency is read from the fitted curve at half-maximal effect; as to ratio activity, negative = inhibition: % is scaled to controls: 0 for no effect and ±100 for the full control effect); conditions: HEK293H PPARg-UAS-bla, beta-lactamase ratio, antagonist, 17 h
How it was run: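 Beta-lactamase reporter under UAS control in HEK293H PPARg-bla cells; compound treatment 17 h at 37C. Read-out: fluorescence intensity after 1 h room-temperature incubation with LiveBLAzer B/G FRET substrate.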

[5] = qHTS assay to identify small molecule agonists of the peroxisome proliferator-activated receptor delta (PPARd) signaling pathway - cell viability counter screen (AID 743211); conditions: PPARd-bla HEK293H viability, CellTiter-Glo luminescence, 17 h; activity change, negative = cytotoxicity: at 62.6 µM (top of the series); also: nearly all actives have a fitted effect of over 55% in size; also: potency is read from the fitted curve at half-maximal effect; as to activity change, negative = cytotoxicity: % is scaled to controls: 0 for no effect and ±100 for the full control effect
How it was run: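 qHTS cell viability: PPARd-bla HEK293H; 17 h cpd, 37C; CellTiter-Glo, luminescence at 30 min RT.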

[6] = molecular target: Peroxisome proliferator-activated receptor delta (Homo sapiens) (UniProt Q03181); assay: qHTS assay to identify small molecule agonists of the peroxisome proliferator-activated receptor delta (PPARd) signaling pathway (AID 743212; calls by dose curve; also: potency is read from the fitted curve at half-maximal effect); conditions: HEK293H PPARd-UAS-bla, beta-lactamase FRET ratio, 17 h; activation: at 62.6 µM (top of the series) unless noted
Chain of UniProt Q03181 (Q03181 whole entry, looked up): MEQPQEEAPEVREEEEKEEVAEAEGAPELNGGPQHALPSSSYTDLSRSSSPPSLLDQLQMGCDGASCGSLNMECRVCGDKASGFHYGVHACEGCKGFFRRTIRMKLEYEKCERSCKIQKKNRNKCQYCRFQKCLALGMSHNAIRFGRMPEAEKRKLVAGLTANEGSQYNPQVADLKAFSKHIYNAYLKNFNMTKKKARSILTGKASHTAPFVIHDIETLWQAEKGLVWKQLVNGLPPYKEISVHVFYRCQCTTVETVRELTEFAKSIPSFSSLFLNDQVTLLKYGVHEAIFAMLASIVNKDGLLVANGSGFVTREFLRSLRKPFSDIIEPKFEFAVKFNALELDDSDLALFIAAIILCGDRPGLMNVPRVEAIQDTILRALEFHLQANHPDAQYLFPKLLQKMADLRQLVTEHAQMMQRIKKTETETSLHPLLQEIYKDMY
How it was run: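 HEK293H PPARd-bla cells; 5 h preincubation 37 C/5% CO2; compound (DMSO) 37 C; LiveBLAzer B/G FRET substrate 2 h RT; fluorescence intensity.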

[7] = molecular target: Peroxisome proliferator-activated receptor delta (Homo sapiens) (UniProt Q03181); assay: qHTS assay to identify small molecule antagonists of the peroxisome proliferator-activated receptor delta (PPARd) signaling pathway (AID 743215; active = well fitted inhibition curve with a large enough effect in the signal ratio in the repeat runs, not every such curve was filed as active; inconclusive = weak or mixed curves, or effect the other way; inactive = no such curve, though single readings can be large or run the other way; the % refers to the signal ratio;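 also: cells stimulated with agonist L165041 at 300 nM final during compound exposure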; also: potency is read from the fitted curve at half-maximal effect); conditions: HEK293H PPARd-UAS-bla, beta-lactamase FRET ratio, antagonist, 17 h; ratio activity, negative = inhibition: at 62 µM (top of the series) unless noted
How it was run: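 Antagonist-mode beta-lactamase reporter screen: HEK293H cells with UAS-bla under PPARd control, stimulated by 300 nM L165041 (final) alongside test compound for 17 h at 37 C, then FRET fluorescence after 2 h substrate incubation.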

[8] = molecular target: Bile acid receptor (Homo sapiens) (UniProt Q96RI1); assay: qHTS assay to identify small molecule agonists of the farnesoid-X-receptor (FXR) signaling pathway (AID 743220; active = well fitted activation curve with a large enough effect in the signal ratio in the repeat runs, not every such curve was filed as active; inconclusive = weak or mixed curves, or effect the other way; the % refers to the signal ratio; also: potency is read from the fitted curve at half-maximal effect); conditions: HEK293T FXR-UAS-bla, beta-lactamase FRET ratio, 16 h; activation: at 62.6 µM (top of the series) unless noted
Chain of UniProt Q96RI1 (Q96RI1 whole entry, looked up): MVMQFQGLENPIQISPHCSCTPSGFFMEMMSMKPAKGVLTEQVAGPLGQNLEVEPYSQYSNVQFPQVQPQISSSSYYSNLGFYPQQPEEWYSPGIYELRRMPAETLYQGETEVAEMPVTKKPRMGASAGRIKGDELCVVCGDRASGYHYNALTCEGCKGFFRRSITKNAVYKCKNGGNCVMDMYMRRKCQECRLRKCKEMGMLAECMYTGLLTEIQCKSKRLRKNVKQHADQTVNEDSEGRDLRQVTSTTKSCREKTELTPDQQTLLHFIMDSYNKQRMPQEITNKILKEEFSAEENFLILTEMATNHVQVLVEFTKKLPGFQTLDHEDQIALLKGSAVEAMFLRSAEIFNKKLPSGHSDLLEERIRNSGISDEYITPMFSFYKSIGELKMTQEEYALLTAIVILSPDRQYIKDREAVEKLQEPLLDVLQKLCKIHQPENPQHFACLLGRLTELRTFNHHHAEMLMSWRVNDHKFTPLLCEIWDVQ
How it was run: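 Beta-lactamase reporter under UAS control in GeneBLAzer FXR HEK 293T cells (5000/well) measured with LiveBLAzer FRET substrate after 2 h at room temperature. Compound exposure lasted 16 h at 37C.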

[9] = qHTS assay to identify small molecule antagonists of the peroxisome proliferator-activated receptor gamma (PPARg) signaling pathway - cell viability counter screen (AID 743194); conditions: PPARg-bla HEK293H viability, CellTiter-Glo luminescence, 17 h, co-treated with 50 nM rosiglitazone; activity change, negative = cytotoxicity: at 62.6 µM (top of the series); also: nearly all actives have a fitted effect of over 55% in size; also: potency is read from the fitted curve at half-maximal effect
How it was run: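 Viability was measured as CellTiter-Glo luminescence in GeneBLAzer PPARg UAS-bla HEK293H cells. These cells had been exposed 17 h at 37 C to compounds together with rosiglitazone at 50 nM final, with the beta-lactamase readout taken in the same wells.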

[10] = qHTS assay for small molecule agonists of the antioxidant response element (ARE) signaling pathway (AID 743202; active = well fitted activation curve with a large enough effect in the signal ratio in the repeat runs, not every such curve was filed as active; inconclusive = weak or mixed curves, or effect the other way; inactive = no such curve, though single readings can be large or run the other way; the % refers to the signal ratio; also: potency is read from the fitted curve at half-maximal effect); conditions: HepG2 ARE-bla reporter, beta-lactamase FRET, 16 h; activation: at 73.3 µM (top of the series) unless noted
How it was run: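 Quantitative high-throughput format in HepG2 cells bearing an integrated ARE-beta-lactamase reporter. Compound exposure lasted 16 h at 37 C, and fluorescence was read 2 h after adding LiveBLAzer B/G substrate at room temperature.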

[11] = qHTS assay for small molecule activators of the heat shock response signaling pathway (AID 743210; active = well fitted activation curve with a large enough effect in the signal ratio in the repeat runs, with a control signal flat, not every such curve was filed as active; inconclusive = weak or mixed curves; the % refers to the signal ratio; also: potency is read from the fitted curve at half-maximal effect); conditions: HeLa HSE-bla reporter, beta-lactamase ratio, 5 h; activation: at 62.6 µM (top of the series)
How it was run: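 HeLa HSE-bla cells, overnight plating; cpd in DMSO 5 h, 37 C; LiveBLAzer B/G FRET substrate 2.5 h RT; fluorescence intensity read.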

[12] = molecular target: Bile acid receptor (Homo sapiens) (UniProt Q96RI1); assay: qHTS assay to identify small molecule antagonists of the farnesoid-X-receptor (FXR) signaling pathway (AID 743217; active = well fitted inhibition curve with a large enough effect in the signal ratio in the repeat runs, not every such curve was filed as active; inconclusive = weak or mixed curves, or effect the other way; inactive = no such curve, though single readings can be large or run the other way; the % refers to the signal ratio; also: % is scaled to controls: 0 for no effect and ±100 for the full control effect); conditions: HEK293T FXR-UAS-bla, beta-lactamase ratio, CDCA-stimulated, 16 h; activity change, negative = inhibition: at 62.6 µM (top of the series) unless noted
How it was run: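 Beta-lactamase reporter under UAS control in HEK 293T cells; compound exposure 16 h at 37 °C in the presence of chenodeoxycholic acid (50 uM final); signal from B/G FRET substrate after 2 h at room temperature.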

[13] = qHTS assay to identify small molecule that activate the aryl hydrocarbon receptor (AhR) signaling pathway - cell viability counter screen (AID 743086); also: potency is read from the fitted curve at half-maximal effect; nearly all actives have a fitted effect of over 45% in size
How it was run: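 Cytotoxicity counter screen: CellTiter-Fluor signal (30 min, 37 C) in 4000 HepG2 cells/well carrying the DRE-luciferase reporter, following 24 h compound exposure at 37 C.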

[14] = qHTS assay for small molecule agonists of the antioxidant response element (ARE) signaling pathway - cell viability counter screen (AID 743203; calls by dose curve; also: potency is read from the fitted curve at half-maximal effect; nearly all actives have a fitted effect of over 55% in size); conditions: ARE-bla HepG2 viability, CellTiter-Glo luminescence, 16 h; viability change, negative = cytotoxic: at 73.3 µM (top of the series)
How it was run: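 Cells (ARE-bla HepG2, 2,000/well) receive DMSO-dissolved compounds after a 5 hrs rest. Plates incubate 16 hrs at 37C/5% CO2. CellTiter-Glo luminescence is then recorded after 30 min at room temperature.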

[15] = qHTS assay to identify small molecule antagonists of the peroxisome proliferator-activated receptor delta (PPARd) signaling pathway - cell viability counter screen (AID 743213); conditions: PPARd-bla HEK293H viability, CellTiter-Glo luminescence, 17 h; viability change, negative = cytotoxic: at 62 µM (top of the series) unless noted; also: potency is read from the fitted curve at half-maximal effect; nearly all actives have a fitted effect of over 50% in size
How it was run: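 Cytotoxicity counter screen: CellTiter-Glo luminescence read 30 min after addition, in the same wells as the reporter assay. There, PPARd UAS-bla HEK293H cells (3000/well) were treated 17 h at 37 C with compound and 300 nM L165041.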

[16] = qHTS assay to identify small molecule agonists of the farnesoid-X-receptor (FXR) signaling pathway - cell viability counter screen (AID 743218); conditions: FXR-bla HEK293T viability, CellTiter-Glo luminescence, 16 h; viability change, negative = cytotoxic: at 62.6 µM (top of the series) unless noted; also: potency is read from the fitted curve at half-maximal effect; nearly all actives have a fitted effect of over 45% in size
How it was run: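 In GeneBLAzer FXR-UAS-bla HEK 293T cells, compounds act for 16 h at 37 C. Cell viability is then scored in the reporter wells by CellTiter-Glo, 30 min at RT, luminescence.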

[17] = ratio activity, negative = inhibition: at 62.6 µM (top of the series) unless noted
Tags tell the direction and shape of the fitted curve or compound fluorescence and quenching.

Cc1cnc(NC(=O)C2=C(O)c3ccccc3S(=O)(=O)N2C)s1
inconclusive: Potency [3] 54.9 µM [rising, single point] | ratio activity, negative = inhibition [4, 17] -43.6% | activation [6] -0.288% | Potency [7] 55.1 µM [activator, partial curve, poor fit] | Potency [8] 29.8 µM [rising, partial curve, poor fit]
active: Potency [2] 61.1 µM
inactive: Potency [1] | ratio activity, negative = inhibition ([4]; at 62.6 µM (top of the series)) 0.179% and -9.12% | Potency [5]

O=c1oc2cc(O)ccc2c2oc3cc(O)ccc3c12
inconclusive: Potency [1] 58.6 µM [rising, partial curve] | Potency [2] 29.4 µM [activator, partial curve, poor fit] | Potency [3] 52.7 µM [fluorescent, partial curve, poor fit] | Potency [4, 17] 47 µM [fluorescent] | Potency [11] 28.5 µM [activator] | Potency [6] 52.7 µM | Potency [7] 59.1 µM [activator, single point] | activity change, negative = inhibition [12] -27.8% | activation [8] 4.14%
inactive: Potency [9]
active: Potency [10] 20.8 µM

N=C1C=CC(=C(c2ccc(N)cc2)c2ccc(N)cc2)C=C1
inconclusive: ratio activity, negative = inhibition [4, 17] 3.53% | Potency [10] 7.7 µM [falling, full curve] | Potency [11] 45.4 µM | Potency [5] 0.389 µM [cytotoxic, full curve, poor fit] | Potency [15] 0.0174 µM [cytotoxic, full curve, poor fit] | ratio activity, negative = inhibition [7] -3.76% | activity change, negative = inhibition [12] 7.52% [fluorescent] | Potency [16] 61.7 µM [cytotoxic, single point] | activation [8] 8.67%
active: Potency [1] 8.63 µM | Potency [13] 17.2 µM | Potency [9] 6.92 µM | Potency [14] 61.1 µM
inactive: Potency [3] | Potency [6]
